{
  "source": "patent EP2149585A1",
  "about": "(Novartis Vaccines and Diagnostics, Inc., dated 2010)",
  "key": {"TRAF2": {"biological_target": "T1, TRAF2 (human, UniProt Q12933 2-501)", "T1 construct": "Co-precipitated from lysates of normal human B cells", "T1 sequence (looked up)": "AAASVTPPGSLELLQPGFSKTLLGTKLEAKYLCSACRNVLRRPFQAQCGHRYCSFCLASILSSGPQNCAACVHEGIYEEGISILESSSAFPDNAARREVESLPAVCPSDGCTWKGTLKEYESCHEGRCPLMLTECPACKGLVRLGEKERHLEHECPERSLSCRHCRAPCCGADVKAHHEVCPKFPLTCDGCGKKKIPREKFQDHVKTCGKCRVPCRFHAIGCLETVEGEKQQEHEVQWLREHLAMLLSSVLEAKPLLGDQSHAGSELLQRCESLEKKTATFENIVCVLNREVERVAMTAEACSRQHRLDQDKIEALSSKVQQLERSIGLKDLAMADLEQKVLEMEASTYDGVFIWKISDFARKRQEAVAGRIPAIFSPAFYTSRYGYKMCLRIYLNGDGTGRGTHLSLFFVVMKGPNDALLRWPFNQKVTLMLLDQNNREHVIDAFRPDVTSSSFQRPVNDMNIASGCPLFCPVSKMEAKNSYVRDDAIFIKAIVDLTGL", "assay": "immunoprecipitation of CD40 from normal human B cells, Western blot with anti-TRAF2 mAb"}, "TRAF3": {"biological_target": "T2, TRAF3 (human, UniProt Q13114 1-568)", "T2 construct": "Co-precipitated from lysates of normal human B cells", "T2 sequence (looked up)": "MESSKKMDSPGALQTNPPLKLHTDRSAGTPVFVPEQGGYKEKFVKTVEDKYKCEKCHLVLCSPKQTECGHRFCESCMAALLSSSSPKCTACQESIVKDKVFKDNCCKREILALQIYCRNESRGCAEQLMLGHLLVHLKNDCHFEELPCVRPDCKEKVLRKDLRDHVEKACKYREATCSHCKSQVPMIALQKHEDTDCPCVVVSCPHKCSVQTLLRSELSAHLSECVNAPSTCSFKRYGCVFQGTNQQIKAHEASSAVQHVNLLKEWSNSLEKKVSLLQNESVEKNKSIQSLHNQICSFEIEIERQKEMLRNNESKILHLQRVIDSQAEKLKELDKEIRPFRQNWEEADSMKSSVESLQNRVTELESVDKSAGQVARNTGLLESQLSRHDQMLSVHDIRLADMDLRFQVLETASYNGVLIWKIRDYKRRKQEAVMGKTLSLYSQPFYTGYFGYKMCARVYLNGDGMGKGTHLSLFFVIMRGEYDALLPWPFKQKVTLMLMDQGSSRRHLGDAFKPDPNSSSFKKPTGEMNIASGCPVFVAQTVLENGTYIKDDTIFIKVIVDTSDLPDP", "assay": "immunoprecipitation of CD40 from normal human B cells, Western blot with anti-TRAF3 mAb"}},
  "data": [
    {"binder": "human CD40 on the cell surface (receptor, CD40 on Ramos cells, normal human B cells/PBMC, NHL and CLL cells; also called cell surface CD40; cell-surface CD40) not shown", "values": [
      {"measurement": "binding result", "setting": "TRAF2", "value": "binds"},
      {"measurement": "binding result", "setting": "TRAF3", "value": "binds"}
    ]}
  ]
}
